Data reported in the supplement of paper PMC8728848.
Some of the results follow.

Assays:
Assay in all cases: glycan array binding signal (z-score within array); higher = stronger binding
Conditions in all cases: glycan notation: IUPAC condensed, linker removed
[1] = molecular target: Neu5Ac(a2-3)Gal(b1-3)GlcNAc(b1-6)GalNAc
How it was run: (§1)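 The Consortium for Functional Glycomics database supplied 3228 glycan arrays, of which those lacking an available protein sequence were dropped. The binding signal, a within-array Z-score, was averaged across arrays of the same protein sequence and across linkers. Negative scores can be read as non-binding.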

[2] = molecular target: Neu5Ac(a2-3)Gal(b1-3)GlcNAc6S
How it was run: as §1

[3] = molecular target: Neu5Ac(a2-3)Gal(b1-3)[Fuc(a1-4)]GlcNAc
How it was run: as §1

[4] = molecular target: Neu5Ac(a2-3)Gal(b1-3)[Fuc(a1-4)]GlcNAc(b1-3)Gal(b1-3)[Fuc(a1-4)]GlcNAc
How it was run: as §1

[5] = molecular target: Neu5Ac(a2-3)Gal(b1-3)[Fuc(a1-4)]GlcNAc(b1-3)Gal(b1-4)[Fuc(a1-3)]GlcNAc
How it was run: as §1

[6] = molecular target: Neu5Ac(a2-3)Gal(b1-3)[GlcNAc(b1-6)]GalNAc
How it was run: as §1

[7] = molecular target: Neu5Ac(a2-3)Gal(b1-3)[Neu5Ac(a2-6)]GalNAc
How it was run: as §1

[8] = molecular target: Neu5Ac(a2-3)Gal(b1-3)[Neu5Ac(a2-6)]GlcNAc(b1-3)[Fuc(a1-3)[Gal(b1-4)]GlcNAc(b1-6)]Gal(b1-4)Glc
How it was run: as §1

[9] = molecular target: Neu5Ac(a2-3)Gal(b1-3)]Neu5Ac(a2-3)Gal(b1-4)]GlcNAc
How it was run: as §1

[10] = molecular target: Neu5Ac(a2-3)Gal(b1-4)Glc
How it was run: as §1

[11] = molecular target: Neu5Ac(a2-3)Gal(b1-4)GlcNAc
How it was run: as §1

[12] = molecular target: Neu5Ac(a2-3)Gal(b1-4)GlcNAc(b1-2)Man
How it was run: as §1

[13] = molecular target: Neu5Ac(a2-3)Gal(b1-4)GlcNAc(b1-2)Man(a1-3)[GlcNAc(b1-4)][Neu5Ac(a2-3)Gal(b1-4)GlcNAc(b1-2)Man(a1-6)]Man(b1-4)GlcNAc(b1-4)GlcNAc
How it was run: as §1

[14] = molecular target: Neu5Ac(a2-3)Gal(b1-4)GlcNAc(b1-2)Man(a1-3)[Neu5Ac(a2-3)Gal(b1-4)GlcNAc(b1-2)Man(a1-6)]Man(b1-4)GlcNAc(b1-4)GlcNAc
How it was run: as §1

[15] = molecular target: Neu5Ac(a2-3)Gal(b1-4)GlcNAc(b1-2)Man(a1-3)[Neu5Ac(a2-3)Gal(b1-4)GlcNAc(b1-2)Man(a1-6)]Man(b1-4)GlcNAc(b1-4)[Fuc(a1-6)]GlcNAc
How it was run: as §1

[16] = molecular target: Neu5Ac(a2-3)Gal(b1-4)GlcNAc(b1-2)Man(a1-3)[Neu5Ac(a2-6)Gal(b1-4)GlcNAc(b1-2)Man(a1-6)]Man(b1-4)GlcNAc(b1-4)GlcNAc
How it was run: as §1

[17] = molecular target: Neu5Ac(a2-3)Gal(b1-4)GlcNAc(b1-2)[Neu5Ac(a2-3)Gal(b1-4)GlcNAc(b1-4)]Man(a1-3)[GlcNAc(b1-4)][Neu5Ac(a2-3)Gal(b1-4)GlcNAc(b1-2)[Neu5Ac(a2-3)Gal(b1-4)GlcNAc(b1-6)]Man(a1-6)]Man(b1-4)GlcNAc(b1-4)GlcNAc
How it was run: as §1

[18] = molecular target: Neu5Ac(a2-3)Gal(b1-4)GlcNAc(b1-2)[Neu5Ac(a2-3)Gal(b1-4)GlcNAc(b1-4)]Man(a1-3)[GlcNAc(b1-4)][Neu5Ac(a2-3)Gal(b1-4)GlcNAc(b1-4)Man(a1-6)]Man(b1-4)GlcNAc(b1-4)GlcNAc
How it was run: as §1

[19] = molecular target: Neu5Ac(a2-3)Gal(b1-4)GlcNAc(b1-2)[Neu5Ac(a2-3)Gal(b1-4)GlcNAc(b1-6)]Man(a1-6)[Neu5Ac(a2-3)Gal(b1-4)GlcNAc(b1-2)Man(a1-3)][GlcNAc(b1-4)]Man(b1-4)GlcNAc(b1-4)GlcNAc
How it was run: as §1

[20] = molecular target: Neu5Ac(a2-3)Gal(b1-4)GlcNAc(b1-3)Gal
How it was run: as §1

[21] = molecular target: Neu5Ac(a2-3)Gal(b1-4)GlcNAc(b1-3)Gal(b1-3)GlcNAc
How it was run: as §1

[22] = molecular target: Neu5Ac(a2-3)Gal(b1-4)GlcNAc(b1-3)Gal(b1-4)GlcNAc
How it was run: as §1

B1: Cp ZmpB (Clostridium perfringens), Q0TR08 (protein)
chain: MNKRKIAAIILATMITNLSATTIDVLAQELNTKNNSKVEVSHDDESHQARVSKFDLYNSDKLDAYNQEFQVSRSNIKSINNNGGKYNSSTIDKAIDGNLETHWETGKPNDANFTNEVVVTFNEITNIDRIVYSARRDSARGKGFAKEFEIYASLKDEGDDFNLVSSGEYTESTRDLVEIKFNPTDFKRLKFKFKKADQNWASAAEFMFYKEDKLNEKFNGLFTDSSMNKVSEEFNTLEKLNAFENELKDHPIYDLYKEGLNNARAILTETSENPTKATLGQITYNLNDDYNNQYRMPYKNIKAIKNNGRHYAAQNIEKAIDNDVNTYWETGTLNSSSFNNEVEVEFNDLVTLDRIVYGSRQSDLKGFAEEVYIYASRTSKGDTYKLVATGAHEATKGLVEAKFEPTEFKRVKFKFKKSKQNSATLNELMFYKPDEVYSSIPKLFTDGTMSELSEEFNSLEKINAFKEKAKNHPLYNDFNETIELAESLISNPRKEDVLELEMRGDSISEAKKRKVWNFQDWQITGLSARAGDKITVYVDVAEGDPTPTLLYKQSLTQHGGATSFQLKPGKNEITIPEINYESNGIPKDVIQGGDLFFTNYKSDSQKRAPKVRIEGASKYPVFILGKSDENEVMKELEAYVEKIKAEPKTTPNIFAVSSNKSLEFVQATYALDWYKKNNKTPKYTAEQWDQYIADAMGFWGFDNSKDVNSDFNFRIMPMVKNLSGGAFMNAGNGVIGIRPGNQDAILAANKGWGVAHELGHNFDTGGRTIVEVTNNMMPLFFESKYKTKTRITDQNIWENNTYPKVGLDDYSNNELYNKADSTHLAQLAPLWQLYLYDNTFYGKFERQFRERDFGNKNREDIYKSWVVAASDAMELDLTEFFARHGIRVDDKVKEDLAKYPKPDKKIYYLNDLAMNYKGDGFTENAKVSVSTSGSNGNIKLSFSVDDENKDNILGYEIRRDGKYVGFTSNDSFVDTKSNLDEDGVYVVTPYDRKLNTLNPIEVNALQPTLSVNPVITLALGEEFNEEEYIVAKDIKGNSLSESVKVKSSNVNTSKVGEYEVLYSLEDSKGNEYTKTSKVNVVSRKEYMSDLTPKQSSNGWGTVRKDKSISGGVIGLTRDGDFVDYNKGLGLHSNAEYVYDLEGKDYDYFESYVGVDKAMSSRPASSVIFKVLVDGEEKFNSGVMRSTTPQKYVKVDVKNAKELKLIVNDAGDGDSSDHASFGDAKLATLSSKPIIKGENLAYSMDEKVDLMKGITATDIEDGNITSKVQIKSSDFVEGKSGIFTVVYSVTDSDGLTSECSRTIAVTDKETQLSDLNWKSATIGSGSVRKDRAVSGNQIRLLNEDNSVETFAKGIGTHSYSEIVYNSEGYDIFDTWVGIDRHVADKKVSSVKFKVYVDGELKAETDVMRIDTPKKRLVVDVRNSKEIKLVVDVADNGNNWDHADWADAKFRNLAEYDASELNKAIEEAKKLDLNNYTEESSEALKNAISKGEEALLSKDKETINSALEELNKEMNSLVKVDLNAVINIPDKYLLKSIQNQLNKTGDITLGDMYSLTTLTLSGVEDLTGLENAKNLETLNMDYNEVKDLRPLSKLKKLNTLNAQEQFIAAGELKPSNGKVIGDSKVYNREGKNVAKTIRVVDKNGNTILEQDAKDEFTINTKDLSSGLYGVHVLFEDEGFSGVMFYLFNV
[1]
  glycan array binding signal (z-score): 0.286
[2]
  glycan array binding signal (z-score): 0.641
[3]
  glycan array binding signal (z-score): -0.312
[4]
  glycan array binding signal (z-score): -0.348
[5]
  glycan array binding signal (z-score): -0.478
[6]
  glycan array binding signal (z-score): -0.276
[7]
  glycan array binding signal (z-score): -0.35
[8]
  glycan array binding signal (z-score): -0.279
[9]
  glycan array binding signal (z-score): 0.061
[10]
  glycan array binding signal (z-score): -0.134
[11]
  glycan array binding signal (z-score): 0.027
[12]
  glycan array binding signal (z-score): 0.151
[13]
  glycan array binding signal (z-score): -0.189
[14]
  glycan array binding signal (z-score): -0.234
[15]
  glycan array binding signal (z-score): -0.471
[16]
  glycan array binding signal (z-score): 0.255
[17]
  glycan array binding signal (z-score): -0.425
[18]
  glycan array binding signal (z-score): 0.211
[19]
  glycan array binding signal (z-score): -0.273
[20]
  glycan array binding signal (z-score): -0.189
[21]
  glycan array binding signal (z-score): -0.122
[22]
  glycan array binding signal (z-score): 0.257
